Measurements from patent publication US12551573B2, “Compositions and methods for the targeting of PCSK9” (Scribe Therapeutics Inc., priority 2022, dated 2026).
Substitutions are numbered along the chain they refer to. Where two headings read alike, the source gives them in different places.

B1: DOMAIN_14773 (protein, listed as Sapajus apella)
chain: FQESVAFEDVAVYFTQNQWGSLDPAQRALYSEVMLENYANVASLVAFPFPKPALISHLEKGEAPWGPDPWDAEIPSGINQG
B2: DOMAIN_14794 (protein, listed as Acinonyx jubatus)
chain: YTLESLTLEDVAVDFTQEEWRLLAPAQKDLYWDVMLENFRNLVSVGYVASMPAALSRLERGGQWMTEDETRHWICPEIKKD
B3: DOMAIN_14795 (protein, listed as Rhinopithecus roxellana)
chain: SLESELFRDVAIVFSQEEWQCLAPAQRDLYRDVMLETYSNLVSLGLAISKPDVISFLEQGKEPWMVERVVSGGLCPVLKYR
B4: DOMAIN_14815 (protein)
chain: PQESVAFDDVAVYFTKKEWAIMVPDQRALYRDVMLENYEAVAFVAVPPTSKPALVSHLEQGKEPCFTQPQGVLSRRDWRAG
modifications: Cebus imitator
B5: DOMAIN_14820 (protein, listed as Callithrix jacchus)
chain: PQVSLTFEDVAVLFTRDEWRKLAPSQRNLYRDVMLENYRNLVSLGLPFTKPKVISLLQQGEDPWKVEKDCFGGSFLGCKSN
B6: DOMAIN_21755 (protein, listed as Equus caballus)
chain: MEGLVMFRDVAVDFSQEEWACLDPAQRGLYRDVMLENYHHLVSLGLSLSKPDVISLLEQGKEPWMVSRNMAGGWCPDRLKN
B7: DOMAIN_14829 (protein, listed as Rhinopithecus roxellana)
chain: SCEGSVSFRDVAINFSREEWQHLDPSQRNLYRDVMLETYSHLLSVGYQVPEAEVVMLEQGKEPWALQGERPRQSCPGEKLW
B8: DOMAIN_14845 (protein)
chain: B7 chain with C2Y, N14D, Q21R, P25L, K61N, R72H
modifications: Cebus imitator
B9: DOMAIN_14849 (protein)
chain: GPLTFRDVTIEFSHEEWKCLDPAQKALYKDVMLENYRNLVFLGITPKCTTKELPPIGNNNTGEKFRTVTLERHECYDIEDI
modifications: Cebus imitator
B10: DOMAIN_14862 (protein, listed as Callithrix jacchus)
chain: EMEPLTFRDVAIEFSLEEWQCLNPAQQDLFRNVMLENYRNLVFLGIAASKPDLITCLEKAKEPWKMKQHEMVDEPPGASTF
B11: DOMAIN_14864 (protein, listed as Macaca mulatta)
chain: SVAFEDVAVNFTQEEWSLLDPSQKNLYREVMQETLRNLASIGKKWKDQNIENEYKNPRSNQRGLMEERLFESEGHQPGEIL
B12: DOMAIN_14885 (protein)
chain: SKAPITFGDLAIYFSQEEWEWLSPIQKDLYEDVMLENYRNLVSLGLSFRRPNVITLLEKGKAPWMVEPARRRRGPELTEAS
modifications: Cebus imitator
B13: DOMAIN_14901 (protein, listed as Bos taurus)
chain: MKLGSVTFEDVAVYFSWEEWALLDEAQRCLYHDVMLENFALTSSLVVSSSSHTIAQLGLGEESFVLPRMHMIPLSTRWAQR
B14: DOMAIN_14905 (protein, listed as Rhinopithecus roxellana)
chain: PQESVAFEDVAVYFTTKEWAIMMPAERALYRDVMLENYEAVAFVVPPTSKPALVSHLEQGKESCFIQPQGVLSRSDWRAGL
B15: DOMAIN_14939 (protein, listed as Callorhinus ursinus)
chain: QQRPVSFKDVVVGFTQEEWHRLNPAQRALYRDVMLETYSNLVSVGYEGTKPYVILKLEQEEAPWICEAACSGCHCQENICQ
B16: DOMAIN_22153 (protein, listed as Zalophus californianus)
chain: VRMPVTFEDVAVTFTQEEWGQLDPAQRTLYQEVMLETCGLLVSLGCPLPKPELFYPLDHSPELQTLKRGLSPNSCPGDSTK
B17: DOMAIN_14948 (protein, listed as Acinonyx jubatus)
chain: NSQGLLTFRDVAIEFSQEELRCLNHSQWELYRDVMFENYGHLLFLGLVVSKPDLVIFLEQKKDVWAVKRKETVATHPGRWE
B18: DOMAIN_14974 (protein, listed as Sapajus apella)
chain: AQKVLTFRDVAIEFSLEEWKFLDPAQQNLYRDVMLENYRNLFSIGLTVSKPGLITCLEQRKAPWNLKRREAVDGHPAMSSH
B19: DOMAIN_14977 (protein, listed as Sapajus apella)
chain: MAHLMFRDVAIDFSQEEWEGLDLKQRDLYRDVMLENYSNMVSLGLCIYQPDVFSLLEKGKEPWKILRDETRGPCPDMQSRC
B20: DOMAIN_14978 (protein, listed as Acinonyx jubatus)
chain: KPGALSFADVAVYFSSEEWGCLRPAQRALYRDVMRETYGHLGALGFAGPKPALISWMERKKEAWSPEAEDPEDRARHPGYG
B21: DOMAIN_14994 (protein)
chain: FQGSVTFRDVSIDFSQEEWEWLQPAQRDLYRHVMLENYGHLVSLGLNMSKPDVVSLLEQGKEPWLGNGDVSRELFPASKSN
modifications: Bison bison
B22: DOMAIN_14995 (protein)
chain: VQEPVTFKDVAVDFTQEEWGQLDLVQRTLYRDVMLETYGHLLSVGNQIAKPEVISLLEQGEEPWSVEQTCPQRACPEWMRN
modifications: Cebus imitator
B23: DOMAIN_15042 (protein)
chain: PQEPVTFADVAVLFTPEEWLFLDSSQKSLYRDVMLENYRNVASVGDQLCKTRMSSHLEQREELCVTERGIFPGAHLGPHLQ
modifications: Ovis aries
B24: DOMAIN_15070 (protein, listed as Callithrix jacchus)
chain: B3 chain with S1P, E3G, C21W, S71A, K79E, Y80S
B25: DOMAIN_22270 (protein, listed as Pan paniscus)
chain: GPLTFRDVAIEFSQEEWKSLDPVQKALYWDVMLENYRNLVFLGILPKCMTKELPPIGNSNTGEKCQTVMLERHECYDVENF
B26: DOMAIN_15083 (protein)
chain: AHMSLSFRDVAIDLSQEEWECLDPVQRALYRDVMLENYSNLVSLGCSTPKPDMITLLEQEKEPWMIMREGTGSWFTGLESK
modifications: Ovis aries
B27: DOMAIN_15086 (protein)
chain: AQVSVTFDDVAVTFTQEEWGHLEPAQRTLYQEVMLETCRLLMSLGCPVPRPELIYQLEHGQELWTVKRDLSRSTCPGYSSE
modifications: Ovis aries
B28: DOMAIN_15102 (protein, listed as Acinonyx jubatus)
chain: KPGALSFADVAVYFSSEEWGCLRPAQRALYRDVMRETYGHLGALGCAGPKPALISWLERNTDDWEPAALDPQECPRGVAVQ
B29: DOMAIN_15119 (protein, listed as Callithrix jacchus)
chain: B4 chain with V55I
B30: DOMAIN_15137 (protein)
chain: AKAPVTFGDLAIYFSQEEWEWLSPIQKDLYEDVMLENYQNLVSLGLSFRRPNVISLLEKGKAPWMVDPVKRRRGLDLGSKC
modifications: Ovis aries
B31: DOMAIN_15159 (protein)
chain: MAFRDVAVDFTQDEWVLLSPAQRSLYREVMLENYSNLVSLGIPFSKPKLITQLEQGKESWREERKCSPVSCLGEWGHWVVQ
modifications: Ovis aries
B32: DOMAIN_23394 (protein)
chain: MAPSQGRLTFEDVAIEFSQEEWECLDPAQRALYGEVMLETYRNLVSLGLTSKDSCSLRKKPRRRRRGQKRTREWPLLRYH
modifications: Vicugna pacos
B33: DOMAIN_15174 (protein)
chain: SQSLVTFGDVAINFSQEEWEWLNSAQRNLYRSVMLENYRNLVSLGLCVSKPDMISSLEQRKEPWMVKRKLTRGRCPDLKAV
modifications: Vulpes vulpes
B34: DOMAIN_15197 (protein, listed as Acinonyx jubatus)
chain: B28 chain with K1R, G3R, L5V, S6K, S16T, R35Q
B35: DOMAIN_15233 (protein, listed as Rhinopithecus roxellana)
chain: MVTFEDVAVHFTKTEWTGLSPAQRALYRSVMLENFGNLTALGYPVPKPALISLLEGGDMAWGLEAQDDPLAERTKNICKGV
B36: DOMAIN_15234 (protein, listed as Acinonyx jubatus)
chain: AQAPLSFEDVAVSFSREEWRLLVPAQKDLYRDVMLENYRNLVSVGYQASEPDSLFQLEHGGPLWVVEGAAPRPPCPEEIWE
B37: DOMAIN_15241 (protein, listed as Odocoileus virginianus)
chain: SLGSDLFRDVAIVFSQEEWEQLAPTQRDLYRDVMLETYSNLVSLGLAVSKPDVISFLEQGKEPWTVEEVAAGGLCPVLKSR

Test system: HBEGF locus
Type: cell-based, human
Conditions: high-throughput screen of dXR repression of the HBEGF gene
[1] = abundance of each domain in the library before and after diphtheria toxin selection, HEK293T cells
[2] = change in abundance of each domain in the library before and after diphtheria toxin selection

Row | Molecule | Log2 (fold change) [1] | Log2 (fold change) [2]
1 | B1 | 3.5997 | 
2 | B2 | 3.4295 | 
3 | B3 | 2.8119 | 
4 | B4 | 3.3826 | 
5 | B5 | 2.8836 | 
6 | B6 |  | 3.1889
7 | B7 | 2.7188 | 
8 | B8 | 2.7224 | 
9 | B9 | 2.3659 | 
10 | B10 | 2.8116 | 
11 | B11 | 3.3492 | 
12 | B12 | 3.5373 | 
13 | B13 | 2.9774 | 
14 | B14 | 3.372 | 
15 | B15 | 2.3884 | 
16 | B16 |  | 3.6967
17 | B17 | 3.3727 | 
18 | B18 | 2.9963 | 
19 | B19 | 3.0085 | 

Row | Molecule | Log2 (fold change) [1] | Log2 (fold change) [2]
20 | B20 | 3.0358 | 
21 | B21 | 2.4997 | 
22 | B22 | 3.5057 | 
23 | B23 | 3.0774 | 
24 | B24 | 4.0108 | 
25 | B25 |  | 2.3813
26 | B26 | 2.7541 | 
27 | B27 | 3.5994 | 
28 | B28 | 3.0929 | 
29 | B29 | 3.3838 | 
30 | B30 | 2.7071 | 
31 | B31 | 3.2135 | 
32 | B32 |  | 4.0769
33 | B33 | 3.1387 | 
34 | B34 | 3.0957 | 
35 | B35 | 2.788 | 
36 | B36 | 3.546 | 
37 | B37 | 3.3955 | 
